These results are taken from PMC12136788.

B1: chr16:70398910:70399011:-|5pUTR|ENSG00000157350|unk|total|mutant (ssRNA)
RNA: GGGAGUUCUACAGUCCGACGAUCCACUUGCAUGGAACCCAAGUCCCCUGAAGCCCCUGUGCUCUCUGUUGUGAUUGGAGUUCCCGGGCUUCCCCGCUGCCGGGAACGAGGGGCCGCCUCAUUGUCUGCUCAUGAACCACAAGGCAACAGAGGAUUGAGCAUCA
B2: chr10:101781316:101781432:-|3pUTR|ENSG00000107833|unk|FALSE|unique (ssRNA)
RNA: GGGAGUUCUACAGUCCGACGAUCCCCACCUGCCUGUGAGAAUUGGAGGUUAGUGCCUGAAGCUCAGAGCUACACAUUUUUAAUAGUUUUUACAUUUUUGGAUAAAGGUUGAAAUAAAGUGGUGUGGAGUUUUUGCAGCUCUUGCAACAGAGGAUUGAGCAUCA
B3: chr11:63758435:63758536:+|3pUTR|ENSG00000133318|msi1|FALSE|unique (ssRNA)
RNA: GGGAGUUCUACAGUCCGACGAUCAGAAAGAAUCAAAUUCAUAGGAUAAGUCAAUACCUUAAUGGUGGUAGAGCCUUUACCUGUAGCUUGAAAGGGGAAAGAUUGGAGGUAAGAGAGAAAAUGAAAGAACACCUCUGGGUCCUUCAACAGAGGAUUGAGCAUCA
B4: chr16:3727180:3727281:-|3pUTR|ENSG00000005339|msi1|total|mutant (ssRNA)
RNA: GGGAGUUCUACAGUCCGACGAUCAAUGCAAGCUUAUAAUGUAUCCCGAUAACUUUGUGAUGUUUCGGGAAGAUUUUUUUCUACCGUGAACUCUGUGGGCGUCUCCCAGUAUUACCCUGGAUGACCGGAAUUGACUCCGGCGUGCAACAGAGGAUUGAGCAUCA
B5: chr3:196828865:196828966:+|3pUTR|ENSG00000180370|msi1|FALSE|bound_elsewhere (ssRNA)
RNA: GGGAGUUCUACAGUCCGACGAUCUGCUCCUUUUGAGUUGCUUUUGCGUUUCUCAUGCCUAGGCAAGUGUAAUAGAAAUUAUGUAGCUCCUUAUGUUGGCAAAGGAGCUCUAUAUAGUUUCACUUUGUAUAAAAGUUAGGACCACAACAGAGGAUUGAGCAUCA
B6: chr7:108149816:108149915:-|CDS_3pUTR|ENSG00000091129|msi1_unk|FALSE|overlapping (ssRNA)
RNA: GGGAGUUCUACAGUCCGACGAUCGUCAACGCCAUGAAUUCCUUUGUUUAAUUUUUAAGCUCUUUGCCAAUAUUCCAUUUCUCUAGAAUGUUUAUCCUAAGCACUUGUUUGUCAGCCCUCUCAUACUAUGAACAUAUGGGUAGACAACAGAGGAUUGAGCAUCA
B7: chr14:75134619:75134720:-|3pUTR|ENSG00000170348|msi1|FALSE|unique (ssRNA)
RNA: GGGAGUUCUACAGUCCGACGAUCAACAAGUCAAUGAGGGACUUCUUUUUAAUUUGGUAGGAUUUUGACUGGUUUUGCAACAAUAGGUCUAUUAUUAGAGUCACCUAUGACAAAAAAUAGGGGUUACCUAGAUAAUGCCAAAGUCAACAGAGGAUUGAGCAUCA
B8: chr3:97755980:97756081:+|3pUTR|ENSG00000080224|unk|FALSE|unique (ssRNA)
RNA: GGGAGUUCUACAGUCCGACGAUCUAAUUAAAAAUCUCUUUCCUACCUUUAGUAAUUUGUAGGAUGAACUGUAUGCAUUUAGAUAGAAAUUGCUUUUGUUAAAUUUACAUUUAAACACAUCUUCAUUCACUUAGAGAAGCCAUACAACAGAGGAUUGAGCAUCA
B9: chr1:10178627:10178729:+|CDS|ENSG00000130939|unk|FALSE|unique (ssRNA)
RNA: GGGAGUUCUACAGUCCGACGAUCUAAGGAAUUGUUUGAAGAAGUUAUUUCAAAGAUGCGGAAGGCAGGGAUCAAAUCCACAAUAGCAAUAGAAAAAUUUAAGCUGCUCGCCGAGAAAGUGGAGGAGAUAGUGGCCAAGAACGCCAACAGAGGAUUGAGCAUCA
B10: chr3:52836218:52836623:-|three_prime_utr|ENSG00000213533|control|control|control (ssRNA)
RNA: GGGAGUUCUACAGUCCGACGAUCAGCAACUGCCCAGUGAAAAGCCAAACAUGCUCUUGCCAUGUCCAUCUCCACUUCUUCGCUAGUGAGAAUUAAAGCAAGUCCGUCUCUGAGGAGGACAUCGUGUUGGGGAGGUAGAGUAUACAACAGAGGAUUGAGCAUCA
B11: chr10:68442948:68443070:-|CDS|ENSG00000138346|unk|FALSE|unique (ssRNA)
RNA: GGGAGUUCUACAGUCCGACGAUCCCCAAUUGUGAUGCUGCCCAAAAUAGAAGAAGAAACCCAGCAUCUGAAGCAAACACACUUAGAAUAUUUCAGCCUUUGGUGUCUAAUGUUAACCCUGGAGUCACAAUCGAAGGAUAAUAACAACAGAGGAUUGAGCAUCA
B12: ENSG00000072803:stop:overlap|stop_codon|ENSG00000072803|stop_codon|NA|stop_codon (ssRNA)
RNA: GGGAGUUCUACAGUCCGACGAUCCUGGAUACAGUAAACGGAAAGAAUCUUGGAAGAUGCUUGACUGCUGUCUUUUCUCAGACUAGUCUGAAAGGGAAAACCCCCAUUCAUUCUGGAUUGGUGGAUCUGAAGUACAAAAUAUUUCAACAGAGGAUUGAGCAUCA
B13: chr1:45640296:45640398:-|CDS|ENSG00000159592|unk|total|mutant (ssRNA)
RNA: GGGAGUUCUACAGUCCGACGAUCCUCUCCACUCUUGUACUUCACAGAAAACCCGCCCCGUGCCAAGCAACCCUCCAAGAUGCCCGUUAUCAAAAAAGUUUCCAAAGAGGAUCCUGCUGCUGCCUUCUCUGCUGCAUUCACCUCCAACAGAGGAUUGAGCAUCA
B14: chr20:1570784:1571137:-|CDS|ENSG00000101307|control|control|control (ssRNA)
RNA: GGGAGUUCUACAGUCCGACGAUCACAGCUGACCUGGUUGGAGAAUGGAAAUGUGUCCCGGACAGAAACAGCUUCGACCCUCAUAGAGAACAAGGAUGGCACCUACAACUGGAUGAGCUGGCUCCUGGUGAACACCUGUGCCCACAACAGAGGAUUGAGCAUCA
B15: chr20:3649766:3649867:+|3pUTR|ENSG00000088812|unk|total|mutant (ssRNA)
RNA: GGGAGUUCUACAGUCCGACGAUCAAGUUCAAAGACUAACCUGCCGCAAUCAGACUUUCCAAAAGGGGGUUCUCCAUUUUUUGCCGUUUUGUCUAAAUUUUUAAUGACCAUUUCCUGGAAUCAGUUUAUUAUACUGAAAACUGGCAACAGAGGAUUGAGCAUCA
B16: chr3:97755980:97756081:+|3pUTR|ENSG00000080224|unk|total|mutant (ssRNA)
RNA: B8 RNA with U49C, A50C, U59C, A60C, U79C, A80C, U83C, A84C, U131C, A132C
B17: chr1:6522505:6522606:-|3pUTR|ENSG00000162408|msi1|FALSE|unique (ssRNA)
RNA: GGGAGUUCUACAGUCCGACGAUCCUGGGAUUACAGGCGUGAGCCACUGCGCCUGGCCUGAAGCUAUUCUUUACAAAAGCUCUUAGUUUUUGUUUGUUUGUUUGUUUUUUUCUUUUGCGACGGACUCUCUGUCGCCAAGGCUGGCAACAGAGGAUUGAGCAUCA
B18: chr3:122573770:122573871:+|3pUTR|ENSG00000163840|msi1|FALSE|unique (ssRNA)
RNA: GGGAGUUCUACAGUCCGACGAUCUAUUGGGUGCACUUGCCCUGCCACAGUAAUGCUAUAUAUUUCUGAGCAUUGUUUUUCUCUAGAUAAUUUUAUAUUUUUGAGUAUACCCCACUUCCAAGUGUUUUUUGUUUUGUUUUGCUUCAACAGAGGAUUGAGCAUCA
B19: chr20:64083387:64083705:-|CDS|ENSG00000171695|control|control|control (ssRNA)
RNA: GGGAGUUCUACAGUCCGACGAUCCUGAAGCCCGCGCGGAUCCCGGACCCCCUGGACCGCCAAGAGGUGCAGACAAGCCCCGGUAGGGGCGGGGAAAGGGGAGGGGCCCUGCCCGCCUCCGCACACGCCGGACCCCAGCCUCUCCAACAGAGGAUUGAGCAUCA
B20: ENSG00000130703:stop:overlap|stop_codon|ENSG00000130703|stop_codon|NA|stop_codon (ssRNA)
RNA: GGGAGUUCUACAGUCCGACGAUCCGUGUGGAUUAUUUGGAAAAGAACUUCACAAGGUGGAAGGACACAUUCAAGACAAAAAGUAGGUCCUUGCCAAGUGUUCAUGGGGCACCACUACAGCCUGUGUGUCCACGUUAGAAGGGCCAACAGAGGAUUGAGCAUCA
B21: chr2:112659350:112659462:+|CDS|ENSG00000144136|unk|total|mutant (ssRNA)
RNA: GGGAGUUCUACAGUCCGACGAUCCUUGCCAAGGUGGGAGAUUGCAUGGGAGACUCCGGUGACAAACCCUUAAGGCGCAAUAACCGCUAUACUUCCUAUACCAUGGCAAUAUGUGGCAUGCCUCUGGAUUCAUUCCGUGCCAAACAACAGAGGAUUGAGCAUCA
B22: chr2:74214837:74214938:+|3pUTR|ENSG00000065911|msi1_unk|FALSE|overlapping (ssRNA)
RNA: GGGAGUUCUACAGUCCGACGAUCCUGUCCUUUUGAGGCUUAGUCAGUUUAUUGGGAAAAUGUUUAGGAUUAUUCCUUGCUAUUAGUACUCAUUUUAUGUAUGUUACCCUUCAGUAAGUUCUCCCCAUUUUAGUUUUCUAGGACCAACAGAGGAUUGAGCAUCA

Substitutions are numbered along the chain they refer to. This is one part of the list.

For the test, the target named is T1, UNK ZnF1-6 (called full-length) (human, UniProt Q9C0B0 30-357).
T1 sequence: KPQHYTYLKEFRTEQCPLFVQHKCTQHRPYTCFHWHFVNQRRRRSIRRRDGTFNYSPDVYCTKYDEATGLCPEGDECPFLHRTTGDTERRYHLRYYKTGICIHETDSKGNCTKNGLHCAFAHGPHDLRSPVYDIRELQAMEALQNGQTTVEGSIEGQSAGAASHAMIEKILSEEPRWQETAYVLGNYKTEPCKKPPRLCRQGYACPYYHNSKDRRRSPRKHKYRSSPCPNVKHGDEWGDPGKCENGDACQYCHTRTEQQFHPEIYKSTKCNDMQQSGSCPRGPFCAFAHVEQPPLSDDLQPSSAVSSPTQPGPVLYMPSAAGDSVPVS
In words: nsRBNS (natural sequence RNA bind-n-seq); RBNS binding buffer (assumed for nsRBNS): 25 mM Tris pH 7.5, 150 mM KCl, 3 mM MgCl2, 0.01% Triton X-100, 500 ug/ml BSA, 20 U/ml SUPERase-In, 4 C; UNK is unkempt and MSI1 is Musashi-1; names of the RNAs are library labels; protein concentration not given here; high values mean tight binding.
For B1, the binding signal was 0.651 enrichment R.
As to B2, the binding signal amounted to 2.25 enrichment R.
B3: the binding signal is 0.876 enrichment R.
The result for B4 reads 0.479 enrichment R; that for B5, 0.86 enrichment R; that for B6, 2.62 enrichment R.
As for B7, the binding signal came out at 1.95 enrichment R.
The molecule B8 registered a binding signal of 10.1 enrichment R.
In turn, B9 came in with a binding signal of 3.53 enrichment R.
The molecule B10 yielded a binding signal of 0.695 enrichment R.
The result for B11 reads 2.63 enrichment R; that for B12, 1.04 enrichment R.
For B13, the binding signal came to 0.826 enrichment R.
Take B14: the binding signal was 0.718 enrichment R.
The molecule B15 yielded a binding signal of 0.554 enrichment R.
The result for B16 reads 0.569 enrichment R.
In turn, B17 registered a binding signal of 0.662 enrichment R.
For B18, the binding signal came out at 5.09 enrichment R.
Molecule B19 displayed a binding signal of 1.98 enrichment R.
B20 yielded a binding signal of 0.872 enrichment R.
B21 registered a binding signal of 0.509 enrichment R.
B22: the binding signal was determined as 12.4 enrichment R.
